# Among all 390,000 compounds or so, about 17,000 (4.4%) were called active. The shares of active, inactive and inconclusive entries below differ from those in the screen. Calls follow the shape of the dose curve; as a rule, active = well fitted inhibition curve with a large enough effect; inconclusive = small, poorly fitted or top-dose-only effect; inactive = no such curve, though single readings can be large or run the other way. A potency beside an inconclusive call is a rough fit, not a confirmed value.
# Molecular target: Lysine-specific demethylase 4A (Homo sapiens) (UniProt O75164)
# Assay: qHTS Assay for Inhibitors of JMJD2A-Tudor Domain; also: nearly all actives have a fitted effect of over 50% in size
# Conditions: AlphaScreen JMJD2A-Tudor / H3K4me3 peptide binding; activity change, negative = inhibition: at 114 µM (top of the series)
# % is scaled to controls: 0 for no effect and ±100 for the full control effect; potency is read from the fitted curve at half-maximal effect; tags tell the direction and shape of the fitted curve.
# Chain of UniProt O75164 (O75164 whole entry, looked up, the tested form may be a part): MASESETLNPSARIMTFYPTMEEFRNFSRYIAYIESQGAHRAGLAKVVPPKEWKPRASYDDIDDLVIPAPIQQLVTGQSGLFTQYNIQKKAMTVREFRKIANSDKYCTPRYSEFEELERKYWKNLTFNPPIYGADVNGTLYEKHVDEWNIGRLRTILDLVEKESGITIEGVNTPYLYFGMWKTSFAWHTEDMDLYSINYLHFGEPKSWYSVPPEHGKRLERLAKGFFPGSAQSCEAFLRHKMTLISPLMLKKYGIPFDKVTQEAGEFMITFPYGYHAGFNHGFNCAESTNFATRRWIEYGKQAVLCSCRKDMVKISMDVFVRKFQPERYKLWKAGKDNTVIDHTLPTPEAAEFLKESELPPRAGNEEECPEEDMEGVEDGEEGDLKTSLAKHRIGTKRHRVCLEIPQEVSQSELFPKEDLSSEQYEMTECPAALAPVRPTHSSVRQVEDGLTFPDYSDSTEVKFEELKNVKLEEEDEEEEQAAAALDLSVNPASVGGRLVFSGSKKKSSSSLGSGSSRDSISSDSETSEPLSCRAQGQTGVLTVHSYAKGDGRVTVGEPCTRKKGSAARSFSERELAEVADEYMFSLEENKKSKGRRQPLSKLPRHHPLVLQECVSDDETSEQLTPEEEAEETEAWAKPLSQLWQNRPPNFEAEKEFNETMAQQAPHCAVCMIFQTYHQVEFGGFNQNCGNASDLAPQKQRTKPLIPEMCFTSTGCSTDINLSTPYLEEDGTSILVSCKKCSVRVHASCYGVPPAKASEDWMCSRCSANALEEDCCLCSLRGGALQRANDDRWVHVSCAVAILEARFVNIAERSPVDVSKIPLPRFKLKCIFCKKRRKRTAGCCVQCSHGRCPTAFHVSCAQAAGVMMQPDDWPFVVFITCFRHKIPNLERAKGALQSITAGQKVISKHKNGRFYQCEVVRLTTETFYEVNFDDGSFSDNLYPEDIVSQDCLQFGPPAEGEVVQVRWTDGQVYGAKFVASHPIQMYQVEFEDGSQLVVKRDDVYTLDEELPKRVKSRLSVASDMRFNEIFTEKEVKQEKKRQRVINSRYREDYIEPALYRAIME
Compound,"activity change, negative = inhibition",Potency
COc1cccc(C2C(=O)N(C3CCCCC3)CC(=O)N2Cc2ccc(Cl)cc2)c1 (centres undefined),inactive: 3.98%,–
O=C(COc1ccccc1C(=O)N/N=C\c1ccc(O)c(O)c1)N/N=C/c1ccc(O)c(O)c1,–,active: 2.24 µM
c1ccc2oc(C3=NNC(=NC4CC4)SC3)cc2c1,–,"inconclusive: 31.6 µM [inhibitor, single point]"
C=CCn1c(C)cc(C(=O)CSc2nc3ccccc3[nH]2)c1C,–,"inconclusive: 56.2 µM [inhibitor, partial curve]"
C=CCn1c(SCC(=O)Nc2nc(C)cs2)nnc1C(C)NC(=O)c1ccccc1Cl (centres undefined),–,active: 89.1 µM
O=C(CSc1nnc(COc2ccccc2Cl)o1)NC(=O)NCc1ccco1,–,"inconclusive: 28.2 µM [inhibitor, full curve]"
CCOc1cc(/C=C/c2cc(C(=O)O)c3ccccc3n2)ccc1O,–,"inconclusive: 70.8 µM [inhibitor, single point]"
Cc1onc(-c2c(F)cccc2Cl)c1C(=O)NCc1ccco1,inactive: 5.2%,–
CC(C)C(=O)Nc1ccc(NC(=O)c2cccc3c(Br)cccc23)cc1,–,"inconclusive: 15.8 µM [inhibitor, full curve]"
COc1ccc(C)cc1S(=O)(=O)NCC(c1ccc(N(C)C)cc1)N1CCc2ccccc21 (centres undefined),–,active: 14.1 µM
COc1cc2cnncc2cc1OC,–,"inconclusive: 89.1 µM [inhibitor, partial curve]"
O=C1C(Cc2ccccc2)Nc2ncnc(N3CCc4ccccc4C3)c2N1Cc1ccc(Cl)cc1 (centres undefined),–,"inconclusive: 44.7 µM [inhibitor, partial curve]"
COc1cc(S(=O)(=O)NC(Cc2c[nH]c3ccccc23)C(=O)O)ccc1NC(C)=O (centres undefined),–,"inconclusive: 31.6 µM [inhibitor, partial curve]"
CCCCn1[nH]c(-c2ccccc2)cc1=O,inactive: -21.5%,–
Cc1[nH]n(C(N)=S)c(=O)c1N=Nc1ccc(S(=O)(=O)N2CCCCCC2)cc1,–,"inconclusive: 44.7 µM [inhibitor, partial curve]"
CN(C(=O)COC(=O)c1cc(-c2ccco2)nc2ccccc12)C1CCS(=O)(=O)C1 (centres undefined),–,"inconclusive: 3.55 µM [inhibitor, partial curve]"
Cc1ccccc1Cn1c(CN2CCN(c3cc(Cl)ccc3C)CC2)nc2c1c(=O)[nH]c(=O)n2C,inactive: -2.32%,–
Cc1cc(C)c(-n2c(C)cc(/C=C3/NC(=O)NC3=O)c2C)c(C)c1,–,"inconclusive: 63.1 µM [inhibitor, partial curve, poor fit]"
S=c1[nH]c(-c2ccccc2)cn1/N=C/c1cccnc1,–,active: 0.794 µM
CCOc1ccc(S(=O)(=O)n2nc(C)c(S(=O)(=O)N3CCOCC3)c2C)cc1,inactive: -15.2%,–
CCCOc1ccc(-c2cc(C(F)(F)F)c(C#N)c(SCC(=O)O)n2)cc1,inactive: -5.86%,–
Cc1ccc(C)c(N2CCN(C(=O)c3cc4sccc4n3C)CC2)c1,–,"inconclusive: 28.2 µM [inhibitor, full curve]"
CCOC(=O)c1c(C)[nH]c(C)c1S(=O)(=O)N1CCN(c2ccc([N+](=O)[O-])cc2)CC1,–,"inconclusive: 11.2 µM [inhibitor, full curve]"

Compound,"activity change, negative = inhibition",Potency
Cc1cccc(Nc2nc(N)c([N+](=O)[O-])c(NCc3ccccc3)n2)c1,–,"inconclusive: 35.5 µM [inhibitor, partial curve]"
Cc1cnc(C)c(N2CCN(Cc3nc(-c4cccc(F)c4F)oc3C)CC2)n1,–,"inconclusive: 89.1 µM [inhibitor, partial curve]"
O=C(Nc1ccc2c(c1)OCO2)c1ccccc1SCC(=O)N1CCCC1,inactive: -4.86%,–
COc1cc(-c2cn(S(=O)(=O)c3cccc4nsnc34)nc2N)cc(OC)c1OC,–,"inconclusive: 56.2 µM [inhibitor, partial curve, poor fit]"
CNC(=O)c1cc(C(=O)c2ccc(Cl)cc2)c(Br)[nH]1,inactive: -2.68%,–
COc1ccc(N(CC(=O)Nc2ccc3c(c2)OCCO3)S(=O)(=O)c2cccc(C)c2)cc1,–,"inconclusive: 44.7 µM [inhibitor, partial curve, poor fit]"
c1ccc2c(c1)NCC1CCCN21 (centres undefined),–,active: 50.1 µM
Cc1cc(C)cc(NS(=O)(=O)c2ccc3c(c2)C(C)(C)C(=O)N3C)c1,–,"inconclusive: 35.5 µM [inhibitor, full curve, poor fit]"
C1CCc2nc3c(nc2C1)CCCC3,inactive: -10.9%,–
COc1ccc(-n2c(=O)c3c4c(sc3n3c(=S)[nH]nc23)CCC4)cc1,–,active: 10 µM
CN1N=C(C(=O)N2CCc3c([nH]c4ccccc34)C2c2c(F)cccc2Cl)CCC1=O (centres undefined),–,"inconclusive: 56.2 µM [inhibitor, partial curve, poor fit]"
C/C(=N\N=C(/N)SC1CC(=O)N(c2ccc(Cl)cc2)C1=O)c1cccs1 (centres undefined),–,"inconclusive: 39.8 µM [inhibitor, partial curve]"
O=[N+]([O-])c1ccc(COc2ccc(Br)cc2CN2CCOCC2)cc1,–,"inconclusive: 44.7 µM [inhibitor, partial curve]"
CC1NC(=O)NC1CCCCCC(=O)NCCc1ccccc1 (centres undefined),–,active: 3.55 µM
CN(C)CCN(C(=O)C1CCCCC1)c1nc2cc3c(cc2s1)OCO3,–,"inconclusive: 50.1 µM [inhibitor, partial curve]"
Cn1c(CC(=O)Nc2ccccc2Cl)nnc1SCC(=O)NC1=NCCS1,inactive: 4.11%,–
CCCCn1c(N)c(N(CC(C)C)C(=O)c2cccc(S(=O)(=O)N(CC)c3ccccc3)c2)c(=O)[nH]c1=O,inactive: -12%,–
O=C(N/N=C/c1cccc([N+](=O)[O-])c1)c1cc2c(ccc3ccccc32)o1,–,"inconclusive: 39.8 µM [inhibitor, partial curve, poor fit]"
CCOc1ccc(NC(=O)CN2CCc3cc4c(cc3C2)OCCCO4)cc1OCC,–,"inconclusive: 17.8 µM [inhibitor, full curve]"
CCOc1ccc(-n2c(SCc3ccc([N+](=O)[O-])cc3)nnc2-c2ccccc2)cc1,–,active: 56.2 µM
O=C(NC12CC3CC(CC(C3)C1)C2)c1ccc(COc2ccc(Cl)cc2[N+](=O)[O-])o1,–,"inconclusive: 39.8 µM [inhibitor, partial curve]"
COc1cc2c(C(=O)N3CCOCC3)c(CSc3ccccc3)n(C)c2cc1Br,–,"inconclusive: 25.1 µM [inhibitor, single point]"
O=C(CCn1c(=O)sc2ccccc21)NC1=NCCS1,–,"inconclusive: 89.1 µM [inhibitor, single point]"

Compound,"activity change, negative = inhibition",Potency
Oc1ccccc1/C=N/NC(=S)NC1CC2CCC1C2 (centres undefined),–,"inconclusive: 35.5 µM [inhibitor, partial curve]"
C[C@@H]1COC(=O)[C@@H](NC(=O)OCC2c3ccccc3-c3ccccc32)C/C=C\C[C@@H](CC(=O)N(CCO)Cc2ccccc2)C(=O)N1,–,"inconclusive: 56.2 µM [inhibitor, partial curve]"
CN=c1scc(-c2ccccc2F)n1/N=C(\C)c1cccnc1,–,active: 15.8 µM
O=C(C[n+]1ccc(C(=O)N/N=C/c2ccc(Cl)cc2Cl)cc1)c1ccccc1,–,"inconclusive: 50.1 µM [inhibitor, partial curve, poor fit]"
CC[C@]12c3[nH]c4ccc(OC)cc4c3CCN1C(=O)C(CC(=O)NCCCOC)C[C@@H]2C(=O)N1CCN(C(=O)C2CC2)CC1 (some centres undefined),inactive: -12.9%,–
Cc1cc(-c2ccc(S(=O)(=O)NCc3ccccc3Cl)s2)on1,inactive: -3.25%,–
O=[N+]([O-])c1cccc(/C=N/Nc2nc(NCc3ccccc3)nc(N3CCOCC3)n2)c1O,–,active: 20 µM
O=C(c1cccnc1Cl)N1CCOCC1,–,"inconclusive: 12.6 µM [inhibitor, full curve]"
Cc1ccc(-c2noc(-c3ccc(N4CCCCC4C)c([N+](=O)[O-])c3)n2)cc1 (centres undefined),inactive: -12.9%,–
CC(C)Cn1c(N)c(C(=O)CSc2nc3ncc(Cl)cc3[nH]2)c(=O)n(C)c1=O,–,"inconclusive: 35.5 µM [inhibitor, single point]"
CC(=O)c1ccc(OCc2cn(CC(=O)c3ccc(O)cc3)nn2)cc1,–,"inconclusive: 44.7 µM [inhibitor, partial curve]"
COc1ccc2[nH]c3c(c2c1)CCN1C(=O)C(CC(=O)NCc2ccco2)C[C@H](C(=O)N(C(C)C)C(C)C)[C@@]31C (some centres undefined),–,"inconclusive: 25.1 µM [inhibitor, full curve]"
CCOc1ccc(CNC(=O)C2CCN(S(=O)(=O)c3ccc4c(ccn4C)c3)CC2)cc1,inactive: -16%,–
CC(Oc1ccccc1)C(=O)OCC(=O)N1CC(=O)Nc2ccccc21 (centres undefined),inactive: 0.687%,–
CCOc1ccc(-c2nc(N)ncc2-c2ccccc2OC)c(O)c1,–,"inconclusive: 56.2 µM [inhibitor, partial curve]"
Cc1cccc(-c2ncc(CN3CCN(CCC(C)C)C(CCO)C3)cn2)c1 (centres undefined),inactive: -6.69%,–
Cc1ccc(CNC(=O)Cn2cnc3cc([N+](=O)[O-])ccc3c2=O)cc1,inactive: -6.9%,–
O=C(NC(=S)Nc1ncccn1)c1ccc(Cl)cc1Cl,–,"inconclusive: 3.98 µM [inhibitor, full curve, poor fit]"
Cc1ccc2[nH]c(C(=O)O)c(-c3ccccc3)c2c1,–,"inconclusive: 50.1 µM [inhibitor, partial curve]"
CCc1nnc(SCc2ccc(F)cc2Cl)c2cc3sc(C)cc3n12,–,active: 89.1 µM
O=c1oc(-c2ccccc2)nc2sc3c(c12)CCC3,inactive: -26.6%,–
Cc1ccc(NC(=O)C2=CC(c3ccc(C)cc3)=NS(=O)(=O)N2C)cc1,–,"inconclusive: 39.8 µM [inhibitor, partial curve]"
COc1ccc(NC(=O)Nc2c(O)ccc3ccccc23)cc1,–,"inconclusive: 89.1 µM [inhibitor, partial curve, poor fit]"
